# “And” between values parts separate entries of the source, which are not always exact repeats. Equal entries are not always repeated. Among all 420,000 compounds or so, about 50,000 (12%) were called active. The shares of active, inactive and inconclusive entries below differ from those in the screen. The call rests on the fitted dose curve; in most records, active means well fitted inhibition curve with a large enough effect; inconclusive means small, poorly fitted or top-dose-only effect; inactive means flat fitted curve, though single readings scatter. Potencies of inconclusive entries are doubtful fits and often do not repeat.
# Assay: qHTS for Inhibitors of human tyrosyl-DNA phosphodiesterase 1 (TDP1): qHTS in cells in presence of CPT; further: nearly all actives have a fitted effect of over 55% in size
# Settings: chicken DT40 Tdp1-/-;hTDP1 cells + 20 nM CPT, ATP luminescence, 48 h; activity change, negative = growth inhibition: at 46.2 µM (top of the series)
# Method in brief: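 Chicken DT40 Tdp1-/- cells complemented with human TDP1, 400 cells/well, exposed to compounds plus 20 nM camptothecin for at least 48 h at 37 C; viability read as ATP content by CellTiter-Glo luminescence.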
# On the % scale 0 is the no-effect control and ±100 the full control effect; potency means the concentration at half of the fitted maximal effect; tags describe the fitted curve by direction and shape.
SMILES,Potency,"activity change, negative = growth inhibition"
CCOc1ccc(CNC(=O)CCCn2nc(C)c3c(C)n(-c4ccc(C)cc4)nc3c2=O)cc1,"inconclusive: 29.1 µM [inhibitor, single point]",
COc1ccc(-c2cc(NC=O)c3ncc(-c4cccc(C(=O)N(C)C)c4)n3c2)c(OC)c1,active: 23.1 µM,
O=C(Oc1cc(=O)oc2c1c(=O)n1c3c(cccc23)CC1)c1ccc(F)cc1,,inactive: -26%
NC(=O)CC(NC(=O)c1ccccc1)c1ccc(N2CCN(c3ccccn3)CC2)c([N+](=O)[O-])c1 (configuration not stated),active: 20.6 µM,
COc1ccc(CNCCc2ccc(Cl)cc2)cc1OCc1ccccc1,active: 6.51 µM,
O=C(CSc1nnc2ccc(-c3ccccn3)nn12)Nc1cccc(F)c1,,inactive: 2.19%
COc1ccc(S(=O)(=O)Nc2cc(Cl)ccc2OC)cc1,active: 2.31 µM,
COC(=O)c1ccc(C(C(=O)NC2CCCCC2)N(Cc2ccc(F)cc2)C(=O)Cc2cccs2)cc1 (configuration not stated),active: 9.2 µM,
COc1ccc(CN2C(=O)C(CC(=O)NCC3CCCCC3)CC(C(=O)N(C(C)C)C(C)C)=C2C)cc1 (configuration not stated),"inconclusive: 29.1 µM [inhibitor, single point]",
Cc1ccc(C(=O)N2CC(=O)Nc3ccc(Br)cc3C2c2ccc(F)cc2)cc1C (configuration not stated),"inconclusive: 16.4 µM [inhibitor, single point]",
CCCn1c(O)c(C=Nc2ccccc2)sc1=S,,inactive: -4.72%
COc1ccccc1C(=O)Nc1ccc2c(c1)nc1n2CCSC1,"inconclusive: 29.1 µM [inhibitor, single point]",
CCc1ccc(NC(=O)Cn2cnc3nc4c(cc3c2=O)CCCC4)cc1,,inactive: -27.6%
CC(O)(c1cccc(F)c1)c1nc(-c2cc3ccccc3o2)cs1 (configuration not stated),"inconclusive: 25.9 µM [inhibitor, partial curve, poor fit]",
CC1=CC(=NOC(=O)/C=C/c2ccccc2)C=C(C)C1=O,active: 20.6 µM,
O=C(NC(Nc1nc2ccc([N+](=O)[O-])cc2s1)(C(F)(F)F)C(F)(F)F)c1cccnc1,active: 3.66 µM,
CCC(Cc1ccccc1)NS(=O)(=O)c1ccc2c(c1)NC(=O)C(C)S2 (configuration not stated),"inconclusive: 29.1 µM [inhibitor, single point]",
CCOn1c(=O)c(-c2cccc(Br)c2)[n+]([O-])c2ccccc21,,inactive: 1.5%
COc1ccc(C(=O)N/C(=C/c2ccc(Cl)cc2)C(=O)Nc2ccc(C(=O)O)cc2)cc1,,inactive: 15.9%
O=C(O)c1ccc2c(c1)N(Cc1ccccc1F)C(=O)c1ccccc1S2=O (configuration not stated),,inactive: -3.48%
CCCCCOc1ccc(NC(=O)C(=O)NCCCn2ccnc2)cc1,"inconclusive: 29.1 µM [inhibitor, partial curve, poor fit]",
CCN1CCN(C(=O)Cn2c(-c3cccs3)cc3cc(Cl)ccc32)CC1,"inconclusive: 18.4 µM [inhibitor, single point]",
COc1ccccc1CNC(=O)c1cc(S(=O)(=O)N2CCCC2)cn1C,,inactive: -19.9%
Cc1ccc(S(=O)(=O)N/N=C\c2cc3c(cc2[N+](=O)[O-])OCO3)cc1,active: 10.3 µM,

SMILES,Potency,"activity change, negative = growth inhibition"
COCCn1c(=O)[nH]c(=O)c2c(C(F)(F)F)cc(-c3cccs3)nc21,,inactive: -0.0151%
CC(Sc1cccc[n+]1[O-])C(=O)NC1CCCCC1C (configuration not stated),,inactive: -2.98%
COCCn1c(SCC(=O)NC2(C#N)CCCCC2)nc2ccccc2c1=O,,inactive: -12%
CCc1ccc(OCC(O)CN2CCN(c3ccc(OC)cc3)CC2)cc1 (configuration not stated),,inconclusive: -34.2% [inhibitor]
O=[N+]([O-])c1ccc(/C=C/c2ccnc3ccccc23)c([N+](=O)[O-])c1,active: 35.5 µM,
COc1ccc(C)cc1NC(=O)C1CCCN1S(=O)(=O)c1ccc2c(c1)CCC(=O)N2 (configuration not stated),"inconclusive: 29.1 µM [inhibitor, single point]",
C=CCNC(=O)c1ccc(NC(=O)C2=CSCCO2)cc1,"inconclusive: 14.6 µM [inhibitor, single point]",
COc1cc(C(=O)NC(=S)NCc2ccncc2)cc(OC)c1OC,"inconclusive: 29.1 µM [inhibitor, single point]",
COc1ccc(S(=O)(=O)N(CC(=O)NC2CCCCC2)c2ccc(F)cc2)cc1,,inactive: -15.3%
Cn1c(CCCOc2ccc(Cl)cc2Cl)nnc1SCC(=O)Nc1nccs1,active: 23.1 µM,
CC(C)(C)c1ccc(C(=O)N2CCN(c3nc4ccccc4o3)CC2)cc1,active: 9.2 µM,
COC(=O)c1cccc(NC(=O)C2CCCN2C(=O)c2cccs2)c1 (configuration not stated),,inactive: 5.01%
O=[N+]([O-])c1ccc(Cl)c(/C=N/N2CCN(Cc3ccccc3Cl)CC2)c1,"inconclusive: 23.1 µM [inhibitor, single point]",
CC1=C(C(=O)OC(C)(C)C)C(c2cccs2)NC(=O)N1 (configuration not stated),,inconclusive: -33.2% [inhibitor]
CN1CCN(c2ncnc3ccc(-c4cccc(NS(C)(=O)=O)c4)cc23)CC1,active: 3.66 µM,
Cc1cc(C)cc(C(=O)NC(CC(N)=O)c2ccc(N3CCN(c4ccccc4)CC3)c([N+](=O)[O-])c2)c1 (configuration not stated),"inconclusive: 1.84 µM [inhibitor, full curve, poor fit]",
CCOc1ccc(CCN2C(=S)N([C@@H](Cc3ccccc3)CN3CCCC3CN3C(=S)NC[C@@H]3Cc3ccccc3)C[C@@H]2Cc2ccc(O)cc2)cc1 (some centres not stated),active: 20.6 µM,
COc1ccc(C(CNC(=O)c2oc3ccccc3c2C)N2CCCCC2)cc1 (configuration not stated),active: 16.4 µM,
CCCc1nc2sc(C(=O)OCC)c(N)c2c2c1COC(C)(C)C2,"inconclusive: 10.3 µM [inhibitor, single point]",
Cc1ccc(NC(=O)C2CCN(S(=O)(=O)c3cccs3)CC2)cc1C,,inactive: -19.7%
C/C(=N\NC(=S)Nc1ccc(F)cc1)C1CC1,"inconclusive: 29.1 µM [inhibitor, single point]",
CC1=NN(C(N)=S)C(C)(C)C1,,inactive: 24.8%
CC(C)CCNC(=O)c1c[nH]c2ccc(S(=O)(=O)Nc3cccc(C(F)(F)F)c3)cc2c1=O,"inconclusive: 29.1 µM [inhibitor, single point]",
COc1ccccc1CCNS(=O)(=O)CCNC(=O)c1ccc2c(c1)OCO2,"inconclusive: 29.1 µM [inhibitor, single point]",

SMILES,Potency,"activity change, negative = growth inhibition"
COc1ccccc1CNC(=O)C1CCN(c2ncnc3c2nc2n3CCCCC2)CC1,"inactive and inconclusive: 18.4 µM [inhibitor, single point]",
CCOc1ccc2cc(C#N)c(SCC(=O)N3CCC(C)CC3)nc2c1,"inconclusive: 29.1 µM [inhibitor, single point]",
Cc1ccc(O)c(NC(=O)c2ccco2)c1,"inconclusive: 9.2 µM [inhibitor, partial curve]",
Cc1ccc(C(=O)NC2CCCCCCC2)cc1S(=O)(=O)N1CCOCC1,"inconclusive: 29.1 µM [inhibitor, single point]",
CC(CC(=O)c1ccccc1)=NCC(O)CN=C(C)CC(=O)c1ccccc1 (configuration not stated),"inconclusive: 14.6 µM [inhibitor, single point]",
COC(=O)C1C(O)=C(C(C)=Nc2cccc3ccccc23)C(=O)CC1(C)C (configuration not stated),"inconclusive: 0.731 µM [inhibitor, full curve, poor fit]",
CCOC(=O)/C(=N\Nc1ccccc1Cl)N1CCN(c2ccccc2OC)CC1,"inconclusive: 29.1 µM [inhibitor, single point]",
CN(C)C(CNC(=O)c1ccc2nccnc2c1)c1ccco1 (configuration not stated),,inactive: -2.61%
COc1cc(OC)c(NC(=O)CS(=O)(=O)Cc2nc(-c3ccc(C)cc3)oc2C)cc1Cl,"inconclusive: 29.1 µM [inhibitor, single point]",
Cc1ccc(-c2cc(-c3ccccc3)nc(N(C)N)n2)cc1,"inconclusive: 10.3 µM [inhibitor, partial curve]",
COc1ccccc1/C=C/c1ccc2ccccc2n1,"inconclusive: 25.1 µM [inhibitor, single point]",
COc1cccc(CNC(=O)C2Cc3ccccc3CN2C(C)=O)c1 (configuration not stated),"inconclusive: 16.4 µM [inhibitor, single point]",
CC(Oc1ccccc1Cl)C(=O)N(Cc1cccs1)C1CCS(=O)(=O)C1 (configuration not stated),,inactive: -24%
Cc1ccc2ccc(C(Nc3ccccc3)c3ccc(Cl)cc3)c(O)c2n1 (configuration not stated),active: 4.11 µM,
CS(=O)(=O)N(Cc1ccc(C(=O)NCCSCc2ccco2)cc1)c1ccccc1,"inconclusive: 25.9 µM [inhibitor, single point]",
CCCCNC(=O)C[C@@H]1C[C@@]2(C(=O)OC)CC(C)(C)CC=C2N(Cc2cccc3ccccc23)C1=O,"inconclusive: 18.4 µM [inhibitor, single point]",
COc1ccc(CCNS(=O)(=O)c2cc3c4c(c2)CC(=O)N4CCC3)cc1,,inactive: -26.5%
COc1ccccc1NS(=O)(=O)c1cc(NC(=O)c2cccs2)ccc1N1CCCC1,active: 5.8 µM,
C=CCn1c(SCc2csc(-c3ccc(C)cc3)n2)nnc1-c1ccccc1OC,active: 11.6 µM,
CC(=O)c1cccc(NC(=O)C2CCCN(S(=O)(=O)c3ccc(F)cc3)C2)c1 (configuration not stated),"inconclusive: 23.1 µM [inhibitor, partial curve]",
O=C(NC1CCS(=O)(=O)C1)c1ccc(S(=O)(=O)N2CCCCC2)cc1 (configuration not stated),,inactive: 0.894%
COc1ccccc1NS(=O)(=O)c1cccc(NS(=O)(=O)c2cc(C(=O)O)ccc2Cl)c1,,inactive: -3.65%
COc1ccc(-c2nn(-c3ccccc3)cc2/C=C/C(=O)N2CCOCC2)cc1OC,"inconclusive: 4.61 µM [inhibitor, partial curve, poor fit]",
CCOC(=O)N1CCC(NC(=O)c2ccc(CS(=O)(=O)c3c(Cl)cccc3Cl)o2)CC1,"inconclusive: 23.1 µM [inhibitor, single point]",

# — PubChem BioAssay AID686979 (National Center for Advancing Translational Sciences (NCATS), 2013)
